The campaign covered roughly 150,000 compounds. About 540 (0.36%) showed an effect of 50% or more. The list shows a part of the results.

For this experiment, the system named is Plasmodium falciparum. Briefly: Primary screen in NF54 nanoGlo assay, in single point, at 2uM, 72h; a lower Z score goes with more inhibition. The class given is functional, Erythrocyte. Conditions: timepoint 72 hour.
For `CCc1ccc(-c2c[nH]c(NC(=O)[C@@H]3COCCO3)n2)cc1`, the % Inhibition (usually the change of the read-out against control, counted positive when it falls) is reported as -4% and the Z score was 0.63.
For `CCC(C)Oc1cccc(NC(=O)N2CC3C4CCC(O4)C3C2)c1` (centres undefined) the same measures were -13% and 1.41.
For `CCC(CC)C1CC(NS(=O)(=O)c2cnc3onc(C)c3c2)CCO1` (centres undefined), the “% Inhibition” value worked out at 7% and the Z score was -1.4.
For the molecule `CC(C)n1cc(C(=O)Nc2ccncc2)cn1`, the “% Inhibition” value was -7% and the Z score stood at 1.38.
With `CC[C@H](CN(C)C)NC(=O)CCc1cccc(OC(F)F)c1`, the “% Inhibition” value was -10% and the Z score is given as 1.69.
In the case of `Cn1ncc(CN2CCC(CCC(=O)O)CC2)c1C(F)(F)F`, the “% Inhibition” value is listed as -7% and the Z score is 0.92.
`COCCn1c(-c2cc(C)cs2)nnc1N1CCC(OC)CC1`: the “% Inhibition” value amounted to 2% and the Z score is on record as -0.39.
For the molecule `N#Cc1ccc(CN2CCC(Oc3cccc(F)c3)(C(=O)O)CC2)cc1`, the “% Inhibition” value is recorded as 0% and the Z score is -0.01.
For the molecule `CC1=C(CCN2CCC[C@H](C(N)=O)C2)C(C)(C)CCC1`, the “% Inhibition” value is 1% and the Z score is listed as -0.12.
As for `Cc1ccnc(Nc2cc(NCCNS(C)(=O)=O)nc(C)n2)c1`, the “% Inhibition” value is -5% and the Z score turned out to be 0.95.
`CC(C)c1nc(CCN(C)C(=O)NCC2CCCCC2)no1`: the “% Inhibition” value is reported as -8% and the Z score amounted to 1.09.
Regarding `O=C(NC[C@H]1CCCO1)c1nc(CCS(=O)(=O)c2ccc(Cl)cc2)no1`, the “% Inhibition” value is given as -8% and the Z score is on record as 1.09.
As for `O=C(NCC1(Br)CC1)Nc1ccncc1`, the “% Inhibition” value is -2% and the Z score came out at 0.23.
With `CCN(CC)C(=O)N1CCn2nnc(CCC(=O)N3CCOCC3)c2C1`, the “% Inhibition” value is reported as -3% and the Z score was 0.61.
For the molecule `Cn1c(CN2CCCCC[C@H]2C2CCCCC2)nnc1C1CC1`, the “% Inhibition” value is on record as -2% and the Z score is given as 0.19.
For `N#Cc1cccc(C(=O)N2CCC3(CC2)C[C@@H](Cc2cccc(F)c2)CCO3)c1` the same measures were 1% and -0.12.
In the case of `O=C(Nc1nc2c(s1)CN(S(=O)(=O)c1ccccc1)CC2)c1cccs1`, the “% Inhibition” value is -4% and the Z score was 0.4.
Consider `C[C@H](NCCN(C)C1CCCCC1)c1cccnc1`, for which the “% Inhibition” value is -9% and the Z score is recorded as 0.9.
In the case of `Cc1ccccc1-c1noc(-c2cccnc2NCCc2ccccc2)n1`, the “% Inhibition” value was determined as 2% and the Z score is recorded as -0.36.
As to `CN1CC2(C[C@H]1C(=O)NCCc1cccnc1)CN(Cc1ccccc1)C2`, the “% Inhibition” value is recorded as -15% and the Z score is 1.77.
Consider `CC1CN(C(=O)OC(C)(C)C)CC(C)N1C(=O)C1COCCO1` (centres undefined), for which the “% Inhibition” value stood at 1% and the Z score is given as -0.1.
Turning to `Cn1ccc(CN2CCC(COc3cc(C4CC4)ncn3)CC2)cc1=O`, the “% Inhibition” value is given as -20% and the Z score worked out at 2.22.
Regarding `NC(=O)c1cccc(Oc2ncnc3ccsc23)c1`, the “% Inhibition” value is on record as -4% and the Z score was determined as 0.47.
For `Cn1ccnc1CN(Cc1cccnc1)C1CCCCCC1` the same measures were 2% and -0.44.
For `O=C(Nc1cccc(F)c1)c1nn(-c2ccc(F)cc2)c2ccccc2c1=O` the same measures were -7% and 0.85.
Consider `N#Cc1cccnc1NCCc1ccc(S(N)(=O)=O)s1`, for which the “% Inhibition” value was 0% and the Z score is -0.06.
With `Cc1ccc([C@H]2CN(C3CCOCC3)C[C@@H]2N)o1`, the “% Inhibition” value was -16% and the Z score is listed as 2.51.
In the case of `O=C1CCCN1c1ccccc1N(Cc1ccc(-n2cccn2)cc1)Cc1ccc(-n2cccn2)cc1`, the “% Inhibition” value is given as 0% and the Z score was determined as 0.03.
Turning to `O=C(CNc1cccc(OCc2ccc(F)cc2)c1)NC1CC1`, the “% Inhibition” value amounted to 12% and the Z score is listed as -1.12.
For `O=C(Nc1ccc(N2CCN(C(=O)c3ccccc3Cl)CC2)nc1)c1cc(F)cc(F)c1` the same measures were -8% and 1.07.
Take `CC(C)(C)OC(=O)NC[C@H]1CCN(CC(=O)NCc2ccco2)C1`: the “% Inhibition” value was -13% and the Z score amounted to 1.28.
For the molecule `O=C(NCc1ccncc1)C1C2CCC(C2)N1C(=O)c1ccccc1` (centres undefined), the “% Inhibition” value was found to be 0% and the Z score was determined as 0.07.
For `Cc1cnc(NCCN(C)S(C)(=O)=O)nc1N(C)C`, in that order: -4% and 0.52.
For `Cc1ncc(C(=O)NC2(C#N)CCCC2)c(C)n1`, in that order: -11% and 1.17.
For `COc1ccc(CCNC(=O)Cc2csc(NC(=O)c3ccc(Cl)cc3)n2)cc1OC` the same measures were 9% and -1.54.
Turning to `CCn1c(CN(C)CC2CCN(CCO)CC2)nc2c(F)cccc21`, the “% Inhibition” value is listed as -6% and the Z score is 1.11.
With `CC(=O)N1CCN(C(=O)c2ccccc2Nc2cccc(C(F)(F)F)c2)CC1`, the “% Inhibition” value is listed as -3% and the Z score is listed as 0.4.
For `CCc1nc(-c2ccccc2-n2cncn2)n(C(C)(C)C)n1`, in that order: -7% and 0.6.
On to `CC1CN(S(=O)(=O)NCC(O)C2CC2)CC(C)O1` (centres undefined), for which the “% Inhibition” value was -1% and the Z score is on record as 0.11.
For `CCC(CC)(CCO)CNC(=O)C1CC1C` (centres undefined), in that order: 1% and -0.12.
Regarding `CCN(CC)S(=O)(=O)c1ccc(Cl)c(C(=O)Oc2ccc(C)cc2-n2nc3ccccc3n2)c1`, the “% Inhibition” value is -8% and the Z score was determined as 1.29.
Regarding `CC(C)(C)C(=O)Nc1ccc(-n2cccc(C(=O)NCCN3CCOCC3)c2=O)cc1`, the “% Inhibition” value is -3% and the Z score is 0.34.
For `CCc1c(C)nc(N)nc1N[C@@H](C)c1ccc(C)cn1` the same measures were 4% and -0.66.
On to `COC(=O)N[C@@H](C)c1nc(Cc2cccs2)nn1CC(F)(F)F`, for which the “% Inhibition” value is -6% and the Z score amounted to 1.03.
In the case of `COc1ccc2[nH]c3c(N4CC5(C)CC4CC(C)(C)C5)ncnc3c2c1` (centres undefined), the “% Inhibition” value was -10% and the Z score amounted to 1.27.
As to `Cc1cc(C(=O)Nc2ccccc2-c2nc3ccccc3s2)on1`, the “% Inhibition” value was 2% and the Z score is recorded as -0.33.
Take `Cc1nn(C)c(C)c1S(=O)(=O)Cl`: the “% Inhibition” value stood at 5% and the Z score is listed as -0.62.
As to `COc1ccccc1C(=O)N1CCN(c2nc(-c3ccccc3)nc(C)c2C(C)C)CC1`, the “% Inhibition” value is given as -18% and the Z score is 1.74.
As for `CCOC1CC(N(C)C(=O)Nc2ccn(C)n2)C12CCCCC2` (centres undefined), the “% Inhibition” value is -15% and the Z score amounted to 2.9.
`Cc1noc(C)c1C(=O)Nc1sc2c(c1C#N)CCCCC2`: the “% Inhibition” value was -4% and the Z score worked out at 0.52.
On to `CC[C@H]1CCCCN1C(=O)Cn1c(=O)n(Cc2ccc(F)cc2)c(=O)c2c1c(C)nn2CC`, for which the “% Inhibition” value is recorded as -3% and the Z score is 0.55.
As for `Cc1ccc(-c2nsc(C(=O)NCCN3CCOCC3)c2N)cc1`, the “% Inhibition” value is given as -15% and the Z score is given as 1.74.
In the case of `COc1ccc(CNC(=O)C2CCN(S(=O)(=O)c3ccc4c(c3)CCC4)CC2)cc1OC`, the “% Inhibition” value is -13% and the Z score is 1.28.
As to `Cc1cnc(-n2ncc(C(=O)O)c2C2CC2)nc1-c1cccs1`, the “% Inhibition” value is given as -7% and the Z score came to 1.26.
`CC(C)Oc1ccc(NC(N)=NC2CC2C)cc1` (centres undefined): the “% Inhibition” value is listed as -17% and the Z score worked out at 2.37.
With `Brc1ccccc1[C@@H]1CN(C2CC2)CCN1`, the “% Inhibition” value is recorded as 17% and the Z score is given as -2.13.
As for `O=C(Cn1cc(C2CC2)nn1)N(Cc1ccco1)c1cccc(F)c1`, the “% Inhibition” value is recorded as -9% and the Z score is 1.1.
Consider `CN1C[C@@H](C(=O)Nc2ccc(-n3cnnn3)cc2)CC1=O`, for which the “% Inhibition” value is given as -3% and the Z score was 0.34.
`Cc1cncc(C(=O)N2CCC3(CC2)CC[C@]3(C)O)c1`: the “% Inhibition” value is given as -11% and the Z score came to 1.36.
Regarding `O=C1NCC(=O)N2CCN(C(=O)c3cccc4c3OCC4)C[C@@H]12`, the “% Inhibition” value is listed as 4% and the Z score is recorded as -0.6.
As to `O=S(=O)(NC1CCC(O)CC1)c1csc2ccc(Cl)cc12` (centres undefined), the “% Inhibition” value is -1% and the Z score came out at 0.1.
On to `CC1CN(C(=O)c2cnc(-c3ccccn3)s2)CC(C)N1` (centres undefined), for which the “% Inhibition” value is given as -1% and the Z score was 0.11.
In the case of `Cc1cc(Cl)ccc1NC(=O)COc1ccc2[nH]c3ccccc3c(=O)c2c1`, the “% Inhibition” value is recorded as -2% and the Z score came to 0.22.
`CCc1ccc(NC(=O)c2scc(-c3ccccc3)c2S(=O)(=O)N(C)c2ccccc2)cc1`: the “% Inhibition” value is -6% and the Z score turned out to be 0.83.
On to `CC1CN(C(=O)CC2C=CCC2)C1c1ccccc1` (centres undefined), for which the “% Inhibition” value is recorded as -5% and the Z score is reported as 0.47.
With `CC(C)c1ccc(NC(=O)CCc2cccc3[nH]ccc23)cc1`, the “% Inhibition” value is recorded as -6% and the Z score amounted to 0.71.
`COc1ccsc1S(=O)(=O)N(C)c1ccc2ccccc2n1`: the “% Inhibition” value was -2% and the Z score is 0.43.
For `CCC(C)NC(=O)CN1CCCC(c2cc(C(N)=O)[nH]n2)C1` (centres undefined), the “% Inhibition” value is recorded as -14% and the Z score amounted to 1.55.
For `CCOC(=O)C1CCN(C[C@]2(O)CCCN(CC3CCC3)C2=O)CC1` the same measures were -1% and 0.07.
For `CCN(CC)C(=O)COC(=O)Cc1ccc(Cl)cc1`, in that order: 29% and -3.94.
Turning to `CC1=NC2(CCN(c3ncnc4c3c(C)nn4C)CC2)C(=O)N1`, the “% Inhibition” value was -1% and the Z score was found to be 0.2.
On to `COc1ccc(N2CCN(C(=O)c3noc(-c4ccc(C)cc4)n3)CC2)cc1`, for which the “% Inhibition” value is on record as -10% and the Z score turned out to be 0.92.
Consider `COCCCN1C(=O)c2ccccc2N[C@@H]1c1ccco1`, for which the “% Inhibition” value is -4% and the Z score is 0.6.
As to `COC(=O)c1ccc(CNS(=O)(=O)c2c(C)noc2C)cn1`, the “% Inhibition” value is given as -11% and the Z score turned out to be 1.39.
Turning to `CN(CC(F)(F)F)C(=O)Nc1ccc(S(C)(=O)=O)cc1`, the “% Inhibition” value was -15% and the Z score is on record as 2.2.
On to `COC(CS(=O)(=O)Nc1nnc(-c2ccc(F)cc2F)o1)C1CCOC1` (centres undefined), for which the “% Inhibition” value is listed as -8% and the Z score was determined as 0.98.
In the case of `O=C(CN(CCO)c1ccc(Br)cc1)NC1CCCC1`, the “% Inhibition” value is -1% and the Z score came to 0.19.
For `C[C@H]1C(=O)N(C)CCN1Cc1cc(C(C)(C)C)on1`, in that order: -32% and 3.74.
Turning to `O=C(c1ccccc1Cl)N1CCc2ncncc2C1`, the “% Inhibition” value is recorded as -9% and the Z score is 1.76.
For `NC(=O)c1nccnc1C(=O)N[C@H]1CCN(c2ccc(Cl)cc2)C1` the same measures were -1% and 0.11.
Consider `CCCCOCCS(=O)(=O)Cc1csc(-c2ccc(OCC)c(OC)c2)n1`, for which the “% Inhibition” value was -1% and the Z score came to 0.07.
In the case of `CN(C)CCn1ccnc1C1CCN(C(=O)c2cn(C)c3ccccc23)CC1`, the “% Inhibition” value is given as -19% and the Z score stood at 1.66.
For `COc1cccc(Cn2ccnc2CN(Cc2ccco2)C(=O)c2ccc(F)cc2)c1`, the “% Inhibition” value was -4% and the Z score is 0.54.
Regarding `COc1cccc(-n2nc(C(=O)NC[C@H]3CCCO3)c(=O)n(Cc3cccc(C)c3)c2=O)c1`, the “% Inhibition” value is on record as -13% and the Z score is 2.58.
Turning to `CCC(c1ccccc1)C1CCCN1CC(=O)NC(C)C` (centres undefined), the “% Inhibition” value is on record as -1% and the Z score turned out to be 0.14.
Consider `C[C@H]1CN(C(=O)CCn2cc(Br)ccc2=O)CCN1`, for which the “% Inhibition” value is -9% and the Z score is given as 1.04.
Take `Cc1nc(-c2ccccc2OC2CN(S(=O)(=O)c3c(C)nn(C)c3C)C2)no1`: the “% Inhibition” value is 7% and the Z score was -0.8.

The values are drawn from ChEMBL document CHEMBL4888484, “Replenishing the malaria drug discovery pipeline: Screening and hit evaluation of the MMV Hit Generation Library 1 (HGL1) against asexual blood stage Plasmodium falciparum ,using a nano luciferase reporter read-out” (2022).
